# Laboratory results taken from PubChem BioAssay AID1346428 (National Center for Advancing Translational Sciences (NCATS), 2018).
# Several values for one entry are separate records, joined by “and”; a condition that tells them apart may be missing. Equal entries are not always repeated. Screen size: about 48,000 compounds; about 1,200 (2.5%) were called active. Not shown: some 2% with an inconclusive outcome.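 How the source made its calls: active means activation of at least 60% and not above a set upper limit (about 1 call in 100 departs from these limits); inconclusive means activation of 40% to 60%, or above that upper limit; inactive means activation under 40%.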 This is one part of the list.
# Target: Probable G-protein coupled receptor 32 (Homo sapiens) (UniProt O75388)
# UniProt O75388, sequence (O75388 whole entry, looked up): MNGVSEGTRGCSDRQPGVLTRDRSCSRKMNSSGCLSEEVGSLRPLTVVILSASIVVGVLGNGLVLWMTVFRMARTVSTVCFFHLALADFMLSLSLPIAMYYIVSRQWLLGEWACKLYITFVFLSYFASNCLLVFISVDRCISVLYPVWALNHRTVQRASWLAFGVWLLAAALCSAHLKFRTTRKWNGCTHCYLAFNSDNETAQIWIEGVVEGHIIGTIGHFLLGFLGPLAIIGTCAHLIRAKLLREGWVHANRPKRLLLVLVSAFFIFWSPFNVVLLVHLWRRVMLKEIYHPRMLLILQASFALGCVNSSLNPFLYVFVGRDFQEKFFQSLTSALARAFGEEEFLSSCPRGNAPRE
# Assay: qHTS for Agonists of Human Resolvin D1 Receptor DRV1; further: 0% is about no effect
# Details: CHO-K1 GPR32 beta-arrestin PathHunter luminescence, 90 min; at 76.9 µM; active compounds read high; zero percent set by DMSO-only wells
# Outline: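 PathHunter beta-arrestin recruitment in CHO-K1 cells stably expressing ProLink-tagged GPR32. Cells were exposed to compound for 90 min at 37 C, then chemiluminescence was read after 1 h detection at ambient temperature; DMSO served as basal control.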
row,SMILES,activation
1,O=C1CC(c2ccc(Br)cc2)c2c(c3ccccc3oc2=O)O1 (configuration not stated),inactive: -22.1%
2,O=C(O)c1ccc(=O)[nH]c1,inactive: 5.93%
3,CCCSc1nc2ccccc2c(=O)n1-c1ccccc1OC,inactive: -37.8%
4,NCCc1c[nH]c2ccc(C(N)=O)cc12,inactive: 1.73%
5,COP(=S)(OC)Oc1cc(Cl)c(Cl)cc1Cl,inactive: 0.157%
6,Cc1ccc([N+](=O)[O-])[c]2c1[O][Hg]2,inactive: 26.2%
7,Cc1cc(C)cc(-n2c(=O)[nH]c3ccccc3c2=O)c1,inactive: -5.95%
8,O=S(=O)(O)C(F)(F)C(F)(F)C(F)(F)C(F)(F)F,active: 94.8%
9,CC(=O)N1CC(=O)Nc2ccc(F)cc2C1c1ccccc1 (configuration not stated),inactive: 13.9%
10,CCC12CN3CC(CC)(CN(C1)C3c1ccccn1)C2=O (configuration not stated),inactive: -11.1%
11,CCOP(=O)(NC(C)C)Oc1ccc(SC)c(C)c1 (configuration not stated),inactive: 7.84%
12,O=C1CC(c2c(F)cccc2Cl)c2c(c3ccccc3oc2=O)O1 (configuration not stated),inactive: 18.6%
13,S=C(SSC(=S)N1CCCCC1)N1CCCCC1,inactive: 1.88%
14,CC1OC(C)OC(C)O1 (configuration not stated),inactive: 7.56%
15,Cc1nnc(NC(=O)c2cccn(Cc3ccccc3F)c2=O)s1,inactive: 24%
16,Nc1ccc([As](=O)(O)O)cc1,inactive: -6.96%
17,O=C(COc1ccc(Cl)cc1)Nc1ccc(Cl)cc1C(=O)c1ccccc1,inactive: -0.753%
18,Cc1c(C(c2ccc(F)cc2)c2c(O)c3ccccc3oc2=O)c(=O)n(-c2ccccc2)n1C (configuration not stated),inactive: 7.32%
19,C=CCN1CC[C@]23CCCC[C@H]2[C@H]1Cc1ccc(O)cc13,inactive: -3.61%
20,ClC1=C(Cl)C2(Cl)C(CBr)CC1(Cl)C2(Cl)Cl (configuration not stated),inactive: 1.89%
21,Cc1ccc(-n2c(/C=C/c3ccc(Br)s3)nc3ccccc3c2=O)cc1C,inactive: -31.2%

row,SMILES,activation
1,O=c1[nH]c2ccccc2n1C1CCN(CCCC(c2ccc(F)cc2)c2ccc(F)cc2)CC1,inactive: 36.1% and inactive: -29.1%
2,CCCN1CC[C@@H]2c3cc(O)ccc3CC[C@@H]21,inactive: -5.93%
3,CCN(CCO)CCn1c(Cc2ccccc2)nc2c1c(=O)n(C)c(=O)n2C,inactive: -2.83%
4,COc1ccc(OC)c(NC(=O)Cn2cc(C(=O)c3ccccc3F)c3ccccc32)c1,inactive: -9.26%
5,C=CCOC(Cn1ccnc1)c1ccc(Cl)cc1Cl (configuration not stated),inactive: -28.2%
6,CC(=O)Nc1cc([As](=O)(O)O)ccc1O,inactive: -0.0424%
7,COc1ccc2c(C(=O)c3ccc(Cl)cc3)c(C)n(CC(=O)O)c2c1,inactive: -8.01%
8,NC(C(=O)O)c1cc(=O)[nH]o1 (configuration not stated),inactive: 6.34%
9,CCC(C(N)=O)N1CCCC1=O (configuration not stated),inactive: -8.93%
10,Nc1ccc(CCN2CCN(c3cccc(C(F)(F)F)c3)CC2)cc1,inactive: -7.11%
11,CC(C)NCC(O)c1ccccc1Cl (configuration not stated),inactive: 9.19%
12,Cc1nnc(NC(=O)c2cccn(Cc3ccc(Cl)cc3)c2=O)s1,inactive: 7.91%
13,CCCCCCCCCCCC[N+](C)(C)CCOc1ccccc1,inactive: -8.73%
14,O=C(Nc1ccccc1-c1ccc(Cl)cc1)c1cccnc1Cl,inactive: -24.2%
15,CC(=O)NCCc1c[nH]c2ccccc12,inactive: 9.91%
16,CC1COC2(c3ccccc3Cl)c3cc(Cl)ccc3NC(=O)CN12 (configuration not stated),inactive: 19.7%
17,COc1ccc(NC(=O)CN2C(=O)C(C)N=C(c3ccccc3F)c3cc(Cl)ccc32)c(OC)c1 (configuration not stated),inactive: -27.2%
18,CC(N)c1cccc(Cl)c1Cl (configuration not stated),inactive: 2.82%
19,Cc1cc(C)cc(-n2c(/C=C/c3cccc(F)c3)nc3ccccc3c2=O)c1,inactive: -16%
20,C#CCN(C)[C@H](C)Cc1ccccc1,inactive: -1%
21,Cc1ccc(NC(=O)N(Cc2ccc3c(c2)OCO3)C2CCN(Cc3ccccc3)CC2)cc1F,inactive: -5.85%

row,SMILES,activation
1,C[C@@H]1O[C@@H](O[C@@H]2C=C3CC[C@@H]4[C@H](CC[C@]5(C)[C@@H](c6ccc(=O)oc6)CC[C@]45O)[C@@]3(C)CC2)[C@H](O)[C@H](O)[C@H]1O,inactive: 16.4%
2,NC(Cc1ccc(N(CCCl)CCCl)cc1)C(=O)O (configuration not stated),inactive: -12%
3,Cc1cc(-n2c(/C=C/c3ccc(Br)s3)nc3ccccc3c2=O)ccc1Br,inactive: -19%
4,Cc1cc(-n2c(/C=C/c3cccs3)nc3ccccc3c2=O)ccc1Br,inactive: -10.8%
5,CCN(CC)CCOC(=O)C(O)(c1ccccc1)c1ccccc1,inactive: -0.171%
6,COc1ccc(C(CN(C)C)C2(O)CCCCC2)cc1 (configuration not stated),inactive: -3.26% and inactive: -3.93%
7,COc1ccc(C(=O)Nc2ccc(Cl)cc2C(=O)c2ccccc2)c(OC)c1,inactive: -24.5%
8,Cc1ccccc1CN1C(=O)CN=C(c2ccccc2)c2cc(Cl)ccc21,inactive: -17.3%
9,Cc1ccc(OCC(=O)N2CCN(CCc3ccncc3)CC2)cc1C,inactive: 14.9%
10,Cc1ccc(-n2c(/C=C/c3cc(Br)cs3)nc3ccccc3c2=O)cc1,inactive: -10.7%
11,O=c1c2ccccc2nc(/C=C\c2ccccc2F)n1-c1ccc(O)cc1,inactive: -4.21%
12,CCN(CCCl)Cc1ccccc1Br,inactive: -13.8%
13,Cc1o[nH]c(=O)c1CC(N)C(=O)O (configuration not stated),inactive: 10%
14,C[C@]12CC[C@H]3[C@@H](CCC4=CC(=O)CC[C@@]43C)[C@@H]1CC[C@@H]2C(=O)O,inactive: 10.5%
15,CCCCc1ccc(NC(=O)c2cccn(Cc3ccc(Cl)cc3)c2=O)cc1,inactive: 5.02%
16,Cc1c(C(c2ccc(Cl)cc2Cl)c2c(O)c3ccccc3oc2=O)c(=O)n(-c2ccccc2)n1C (configuration not stated),inactive: 10.3%
17,CCc1ccc(NC(=O)c2cccn(Cc3cccc([N+](=O)[O-])c3)c2=O)cc1,inactive: 17.2%
18,Cc1cccc(-n2c(/C=C/c3ccccc3O)nc3ccccc3c2=O)c1,inactive: -29.1%
19,O=c1c2ccccc2nc(/C=C/c2cccc3ccccc23)n1-c1ccccc1Cl,inactive: 14%
20,NP(N)(=O)NC(=O)c1ccc(F)cc1,inactive: -5.55%
